{
  "source": "patent US20220160891A1",
  "about": "(Johns Hopkins, published 2022)",
  "binders": {"B1": {"name": "F5111 immunocytokine (IC) LN15 (other)", "heavy": "QLQLQESGPGLVKPSQTLSLTCTVSGGSISSGGYYWSWIRQHPGKGLEWIGYIYYSGSTYYNPSLKSRVTISVDTSKNQFSLKLSSVTAADTAVYYCARTPTVTGDWFDPWGRGTLVTVSS[not shown - human IgG1 constant region]", "light": "[not shown - about 150 residues]GGGGSGGGGSGGGGSNFMLTQPHSVSESPGKTVTISCTRSSGSIASNYVQWYQQRPGSSPTTVIYEDNQRPSGVPDRFSGSIDSSSNSASLTISGLKTEDEADYYCQSYDSSNVVFGGGTKLTVLGQPKAAPSVTLFPPSSEELQANKATLVCLISDFYPGAVTVAWKADSSPVKAGVETTTPSKQSNNKYAASSYLSLTPEQWKSHRSYSCQVTHEGSTVEKTVAPTECS", "notes": "also called F5111 IC LN15; single-chain IL-2/F5111 immunocytokine"}},
  "target": "T1, yeast surface-displayed human IL-2 (residues 1-133) (human, UniProt P60568)",
  "T1 construct": "also called hIL-2; not shown: yeast display anchor encoded by the pCT302 vector",
  "T1 sequence (P60568 21-153)": "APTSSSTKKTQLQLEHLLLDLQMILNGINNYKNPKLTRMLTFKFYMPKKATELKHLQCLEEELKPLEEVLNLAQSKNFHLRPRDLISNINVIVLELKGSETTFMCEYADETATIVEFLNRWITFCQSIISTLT",
  "assay": "yeast surface titration on hIL-2-displaying yeast, flow cytometry, normalized MFI",
  "experimental": "Yeast surface binding studies. […] Cells were then washed and stained with a 1:200 dilution of Alexa647-conjugated streptavidin (Thermo) in PBSA for 15 minutes at 4° C. After a final wash, cells were analyzed for antibody binding using a CytoFLEX flow cytometer (Beckman Coulter). Background-subtracted and normalized binding curves were fitted to a first-order binding model and equilibrium dissociation constant (KD) values were determined using GraphPad Prism.",
  "data": [
    {"binder": "B1", "values": [
      {"measurement": "EC50 (read off the curve)", "result": "~4", "unit": "nM"}
    ]}
  ]
}
